Test results from the supplement of paper PMC3334620.
The full ranking holds about 33,000 sequences; the median of “E-score (-0.5 to 0.5)” is about -0.012, and the highest 2% start at about 0.29. Some of the results follow.

Target: T1, Ybr033w (UniProt P38073)
T1 sequence: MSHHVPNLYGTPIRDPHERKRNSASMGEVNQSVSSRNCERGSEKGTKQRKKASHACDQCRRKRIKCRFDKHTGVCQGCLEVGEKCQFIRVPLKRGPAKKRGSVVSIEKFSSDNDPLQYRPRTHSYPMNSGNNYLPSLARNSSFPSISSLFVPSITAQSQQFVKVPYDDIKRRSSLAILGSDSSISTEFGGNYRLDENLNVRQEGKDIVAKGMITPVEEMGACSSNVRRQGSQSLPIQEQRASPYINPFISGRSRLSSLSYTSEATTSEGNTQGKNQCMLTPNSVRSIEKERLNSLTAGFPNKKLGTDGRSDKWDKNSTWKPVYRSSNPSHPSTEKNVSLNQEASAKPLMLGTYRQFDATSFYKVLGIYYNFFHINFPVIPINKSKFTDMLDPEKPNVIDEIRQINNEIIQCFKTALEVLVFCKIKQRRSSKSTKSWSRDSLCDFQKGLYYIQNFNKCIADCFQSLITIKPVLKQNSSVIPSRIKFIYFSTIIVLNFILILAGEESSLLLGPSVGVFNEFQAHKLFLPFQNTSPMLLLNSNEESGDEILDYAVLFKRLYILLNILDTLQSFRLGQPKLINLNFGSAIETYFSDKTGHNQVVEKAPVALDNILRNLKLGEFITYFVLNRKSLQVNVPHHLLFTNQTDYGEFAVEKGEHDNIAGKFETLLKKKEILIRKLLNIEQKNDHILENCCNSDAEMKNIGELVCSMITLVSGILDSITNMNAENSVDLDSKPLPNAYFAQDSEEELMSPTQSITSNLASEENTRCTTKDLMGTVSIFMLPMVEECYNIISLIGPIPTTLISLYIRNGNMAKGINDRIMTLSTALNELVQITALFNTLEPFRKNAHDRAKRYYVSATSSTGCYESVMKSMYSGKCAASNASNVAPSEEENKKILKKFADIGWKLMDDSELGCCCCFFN
Assay: PBM E-score (8-mer binding enrichment) (E-score (-0.5 to 0.5)); higher = stronger / more preferred TF binding; most listed sequences are background and not binding sites
Conditions: protein concentration: 200 nM; construct: GST-full length
Summary of the method: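 The E-score, a modified Wilcoxon-Mann-Whitney statistic, was computed by the Universal PBM Analysis Suite for every ungapped eight-base word pooled with its reverse complement. Scans behind it were normalised with masliner after bound GST-tagged yeast transcription factors were detected with fluorescent anti-GST. The proteins, at about 100-200 nM, had been applied to universal all-10-mer Agilent arrays made double-stranded by primer extension.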

Question: With AAGACAGC as the sequence, how does the “PBM E-score” value read?
Answer: Its value is -0.0461.

Question: Which “PBM E-score” value does the source give for TCCCGGAA here?
Answer: The value was 0.161.

Question: GGAATTAC was tested. Which “PBM E-score” value did it give?
Answer: Its value is 0.291.

Question: CGAGAGAA was tested. Which “PBM E-score” value did it give?
Answer: Its value is 0.0602.

Question: How did the “PBM E-score” value turn out when CGAGGCAC was run?
Answer: The value was -0.109.

Question: CCGTAATA was tested. Which “PBM E-score” value did it give?
Answer: The value was 0.154.

Question: With CTCGTTTC as the sequence, how does the “PBM E-score” value read?
Answer: Its value is 0.0476.

Question: How did the “PBM E-score” value turn out when TACGTTGA was run?
Answer: Its value is 0.0485.

Question: For AATAGGAT, which “PBM E-score” value is on record?
Answer: Its value is 0.295.

Question: CGCTCTCA was tested. Which “PBM E-score” value did it give?
Answer: The value was -0.223.

Question: Which “PBM E-score” value does the source give for GTGGGGTA here?
Answer: The value was 0.00795.

Question: With AGAACTCC as the sequence, how does the “PBM E-score” value read?
Answer: The value was -0.05.

Question: GAGGTTGC was tested. Which “PBM E-score” value did it give?
Answer: Its value is -0.239.

Question: AACATGAA was tested. Which “PBM E-score” value did it give?
Answer: The value was 0.0903.

Question: For TGTTCGAA, which “PBM E-score” value is on record?
Answer: Its value is 0.0189.

Question: How did the “PBM E-score” value turn out when ACTCGTTG was run?
Answer: Its value is -0.031.

Question: Which “PBM E-score” value does the source give for GAAATCGA here?
Answer: Its value is -0.0436.

Question: For CCCTTCGA, which “PBM E-score” value is on record?
Answer: The value was -0.158.

Question: ATTACATG was tested. Which “PBM E-score” value did it give?
Answer: The value was 0.161.

Question: With ATGACGGG as the sequence, how does the “PBM E-score” value read?
Answer: Its value is -0.117.

Question: CATGGAAG was tested. Which “PBM E-score” value did it give?
Answer: Its value is 0.204.

Question: With AAAGTAGC as the sequence, how does the “PBM E-score” value read?
Answer: Its value is 0.142.

Question: How did the “PBM E-score” value turn out when AAGCAATC was run?
Answer: Its value is 0.0251.

Question: With ACTCTGTA as the sequence, how does the “PBM E-score” value read?
Answer: Its value is 0.105.

Question: AAGTTTTA was tested. Which “PBM E-score” value did it give?
Answer: Its value is 0.179.

Question: Which “PBM E-score” value does the source give for GTTCGAAA here?
Answer: Its value is 0.0787.

Question: For ATAGGTTC, which “PBM E-score” value is on record?
Answer: The value was 0.143.

Question: With AACCCCCT as the sequence, how does the “PBM E-score” value read?
Answer: Its value is -0.296.

Question: Which “PBM E-score” value does the source give for TACAGTAA here?
Answer: Its value is 0.174.

Question: Which “PBM E-score” value does the source give for CTTATGAA here?
Answer: Its value is 0.102.

Question: For CGTTATCA, which “PBM E-score” value is on record?
Answer: The value was 0.0121.

Question: AAGCCACA was tested. Which “PBM E-score” value did it give?
Answer: The value was -0.0702.

Question: Which “PBM E-score” value does the source give for CCCACTCC here?
Answer: Its value is -0.238.

Question: Which “PBM E-score” value does the source give for CATCTCCG here?
Answer: Its value is -0.00322.

Question: How did the “PBM E-score” value turn out when GCACACCA was run?
Answer: Its value is -0.145.

Question: For ATTCTTCC, which “PBM E-score” value is on record?
Answer: Its value is 0.471.

Question: CCGCCATA was tested. Which “PBM E-score” value did it give?
Answer: Its value is 0.0114.

Question: With ATGTCTGC as the sequence, how does the “PBM E-score” value read?
Answer: The value was -0.125.

Question: With GCACTATA as the sequence, how does the “PBM E-score” value read?
Answer: Its value is 0.0785.

Question: How did the “PBM E-score” value turn out when AACGACCC was run?
Answer: Its value is -0.309.

Question: For GTCCATTA, which “PBM E-score” value is on record?
Answer: Its value is 0.0962.

Question: With CCCGGAGC as the sequence, how does the “PBM E-score” value read?
Answer: The value was -0.222.

Question: TCGCGTCA was tested. Which “PBM E-score” value did it give?
Answer: The value was -0.11.

Question: Which “PBM E-score” value does the source give for GGGTGATA here?
Answer: The value was -0.0882.

Question: CTCCTAAG was tested. Which “PBM E-score” value did it give?
Answer: Its value is -0.109.

Question: With CACAGACA as the sequence, how does the “PBM E-score” value read?
Answer: Its value is 0.0387.

Question: For CCGATAAA, which “PBM E-score” value is on record?
Answer: Its value is 0.0212.

Question: ATGCATTG was tested. Which “PBM E-score” value did it give?
Answer: The value was 0.0596.

Question: AGGGGCCG was tested. Which “PBM E-score” value did it give?
Answer: The value was -0.29.

Question: Which “PBM E-score” value does the source give for CAGATGGA here?
Answer: The value was 0.22.

Question: How did the “PBM E-score” value turn out when CGCGATAA was run?
Answer: Its value is 0.223.

Question: With TGACAGAA as the sequence, how does the “PBM E-score” value read?
Answer: Its value is 0.131.

Question: For ATGAAAAC, which “PBM E-score” value is on record?
Answer: Its value is 0.202.

Question: For AACAGGTC, which “PBM E-score” value is on record?
Answer: Its value is 0.0597.

Question: ACTACACA was tested. Which “PBM E-score” value did it give?
Answer: Its value is 0.214.

Question: For ACTCCGTG, which “PBM E-score” value is on record?
Answer: Its value is -0.0559.

Question: With ACCTTGTC as the sequence, how does the “PBM E-score” value read?
Answer: Its value is -0.217.

Question: How did the “PBM E-score” value turn out when AGAGTTCC was run?
Answer: The value was -0.098.

Question: How did the “PBM E-score” value turn out when AGAGTCCG was run?
Answer: Its value is -0.109.

Question: Which “PBM E-score” value does the source give for GATATACA here?
Answer: Its value is 0.144.

Question: How did the “PBM E-score” value turn out when ATTACGCA was run?
Answer: The value was 0.225.

Question: For CTATGCCC, which “PBM E-score” value is on record?
Answer: The value was -0.206.

Question: With AAACTGGG as the sequence, how does the “PBM E-score” value read?
Answer: Its value is 0.0083.

Question: With GACCATCC as the sequence, how does the “PBM E-score” value read?
Answer: The value was -0.14.

Question: Which “PBM E-score” value does the source give for ATTCCATG here?
Answer: The value was 0.133.

Question: With AAACCTCT as the sequence, how does the “PBM E-score” value read?
Answer: Its value is -0.0634.

Question: CGAGGTCC was tested. Which “PBM E-score” value did it give?
Answer: Its value is -0.24.

Question: CACGTCGA was tested. Which “PBM E-score” value did it give?
Answer: The value was -0.0306.

Question: AGGTAGGC was tested. Which “PBM E-score” value did it give?
Answer: The value was -0.147.

Question: AGCACTAA was tested. Which “PBM E-score” value did it give?
Answer: Its value is 0.146.

Question: With CATTGAGG as the sequence, how does the “PBM E-score” value read?
Answer: The value was -0.0918.

Question: Which “PBM E-score” value does the source give for CCTTGGTA here?
Answer: Its value is 0.137.

Question: For AGTTCTCC, which “PBM E-score” value is on record?
Answer: The value was -0.131.

Question: With ATCCATGG as the sequence, how does the “PBM E-score” value read?
Answer: The value was -0.0256.

Question: For GCTTGTAA, which “PBM E-score” value is on record?
Answer: The value was 0.0713.

Question: CTAAATCC was tested. Which “PBM E-score” value did it give?
Answer: The value was 0.018.

Question: How did the “PBM E-score” value turn out when CGGGATTC was run?
Answer: Its value is -0.0497.

Question: How did the “PBM E-score” value turn out when CTTTGGTC was run?
Answer: Its value is 0.0811.

Question: How did the “PBM E-score” value turn out when AACGCTAA was run?
Answer: Its value is -0.0623.

Question: For GAAGGGAC, which “PBM E-score” value is on record?
Answer: The value was -0.154.

Question: Which “PBM E-score” value does the source give for ATGTTTCA here?
Answer: The value was 0.171.

Question: How did the “PBM E-score” value turn out when CCGGGACC was run?
Answer: The value was -0.211.

Question: With AAGACCAT as the sequence, how does the “PBM E-score” value read?
Answer: Its value is 0.073.

Question: How did the “PBM E-score” value turn out when GAGATCAA was run?
Answer: The value was 0.118.

Question: CTCACAAG was tested. Which “PBM E-score” value did it give?
Answer: The value was -0.103.

Question: Which “PBM E-score” value does the source give for CGTATATA here?
Answer: Its value is -0.0295.

Question: CCCCGAAG was tested. Which “PBM E-score” value did it give?
Answer: Its value is -0.0238.

Question: With CCTATAGA as the sequence, how does the “PBM E-score” value read?
Answer: Its value is -0.0909.

Question: For AAGCTGAT, which “PBM E-score” value is on record?
Answer: The value was 0.202.

Question: Which “PBM E-score” value does the source give for ACAAGTAC here?
Answer: The value was 0.0779.

Question: With CACAGCAC as the sequence, how does the “PBM E-score” value read?
Answer: The value was -0.103.

Question: For AGGACAAG, which “PBM E-score” value is on record?
Answer: Its value is -0.111.

Question: For AATTTTCG, which “PBM E-score” value is on record?
Answer: The value was 0.102.

Question: For GGCTACAC, which “PBM E-score” value is on record?
Answer: The value was -0.12.
